Laboratory results from PubChem BioAssay AID504332 (National Center for Advancing Translational Sciences (NCATS), 2011).
Screen size: about 350,000 compounds; about 31,000 (8.9%) were called active. The inconclusive results got no clear call from the source; some entries with a clear call stand among them for comparison. Calls follow the shape of the dose curve; as a rule, active = well fitted inhibition curve with a large enough effect; inconclusive = small, poorly fitted or top-dose-only effect; inactive = no such curve, though single readings can be large or run the other way. Where the call is inconclusive, the potency comes from a doubtful curve fit.

What follows are molecules tested against Histone-lysine N-methyltransferase EHMT2 (Homo sapiens) (UniProt Q96KQ7) (assay: qHTS Assay for Inhibitors of Histone Lysine Methyltransferase G9a). Conditions: G9a H3K9 monomethylation, AlphaScreen, 2 h; activity, negative = inhibition: at 59 µM (top of the series) unless noted.
Sequence of UniProt Q96KQ7 (Q96KQ7 whole entry, looked up): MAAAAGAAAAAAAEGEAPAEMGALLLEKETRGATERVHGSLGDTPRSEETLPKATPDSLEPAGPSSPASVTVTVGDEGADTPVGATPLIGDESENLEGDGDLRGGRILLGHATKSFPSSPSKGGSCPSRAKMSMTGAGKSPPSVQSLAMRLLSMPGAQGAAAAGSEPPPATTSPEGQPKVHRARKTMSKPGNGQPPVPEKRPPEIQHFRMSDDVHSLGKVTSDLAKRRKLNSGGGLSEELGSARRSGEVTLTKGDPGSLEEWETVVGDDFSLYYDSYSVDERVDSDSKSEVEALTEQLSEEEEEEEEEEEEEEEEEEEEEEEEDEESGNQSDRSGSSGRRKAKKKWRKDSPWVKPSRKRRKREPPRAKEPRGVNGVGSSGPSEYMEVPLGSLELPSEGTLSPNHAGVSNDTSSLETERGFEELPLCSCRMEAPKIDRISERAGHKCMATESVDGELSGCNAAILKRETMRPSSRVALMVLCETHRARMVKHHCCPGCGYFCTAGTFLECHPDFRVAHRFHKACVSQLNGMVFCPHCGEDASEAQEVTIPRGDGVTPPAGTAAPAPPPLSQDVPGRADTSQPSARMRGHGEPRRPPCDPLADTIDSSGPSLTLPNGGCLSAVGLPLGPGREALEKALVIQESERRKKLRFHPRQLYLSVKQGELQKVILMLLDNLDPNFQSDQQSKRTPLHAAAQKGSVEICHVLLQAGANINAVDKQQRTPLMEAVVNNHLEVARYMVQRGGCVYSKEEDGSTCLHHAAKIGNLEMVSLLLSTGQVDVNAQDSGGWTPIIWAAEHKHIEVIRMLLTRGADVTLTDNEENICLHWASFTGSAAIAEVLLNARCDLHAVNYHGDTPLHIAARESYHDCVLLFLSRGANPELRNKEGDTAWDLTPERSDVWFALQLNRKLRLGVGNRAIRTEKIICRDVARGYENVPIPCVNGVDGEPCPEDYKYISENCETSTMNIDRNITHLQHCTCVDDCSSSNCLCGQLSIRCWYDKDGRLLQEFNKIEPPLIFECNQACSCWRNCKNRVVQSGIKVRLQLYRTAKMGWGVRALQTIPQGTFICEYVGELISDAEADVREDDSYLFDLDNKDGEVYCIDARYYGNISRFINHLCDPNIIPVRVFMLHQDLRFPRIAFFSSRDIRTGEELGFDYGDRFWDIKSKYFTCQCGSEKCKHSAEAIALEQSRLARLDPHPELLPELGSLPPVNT
Method in brief: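 Step 1: enzyme (final 20 nM) with compound, 15 min RT. Step 2: substrate peptide 500 nM and SAM 20 uM, 2 h RT. Step 3: anti-H3K9me1 antibody and AlphaScreen beads, 10 min, then plate read.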
% is scaled to controls: 0 for no effect and ±100 for the full control effect; potency is read from the fitted curve at half-maximal effect; tags tell the direction and shape of the fitted curve.
Also: nearly all actives have a fitted effect of over 75% in size.

Structure (SMILES) | activity, negative = inhibition | Potency
COc1ccccc1C(=O)NCc1nnnn1-c1ccc(C)c(C)c1 | inactive: 14.6% | 
COC(=O)C(CC(C)C)N1CCC(=O)c2ccccc2S1(=O)=O (stereo not given) |  | inconclusive: 1.41 µM [inhibitor, single point]
O=C(CN1CCCC1)N/N=C/c1c(O)ccc2ccccc12 | inactive: 8.29% [at 102 µM] | 
CSc1nnc(SCC#N)s1 | inactive: 8.95% [at 102 µM] | 
O=c1c(-c2cc(F)cc(F)c2)nc2cnc(N3CCOCC3)nc2n1CCc1ccccc1 | inactive: 15% [at 0.501 µM] | 
COc1ccccc1NS(=O)(=O)c1ccc2c(c1)n(C)c(=O)n2C | inactive: -6.27% | 
COCC1CCN(C(=O)c2cc(COc3ccc(-n4cncn4)cc3)on2)C1 (stereo not given) |  | inconclusive: 22.4 µM [inhibitor, partial curve, poor fit]
O=[N+]([O-])c1ccccc1/C=N/N1CCN(c2ccncc2S(=O)(=O)N2CCCCC2)CC1 |  | inconclusive: 22.4 µM [inhibitor, single point]
O=C(CC(c1ccco1)S(=O)(=O)c1ccccc1)c1ccc(F)cc1 (stereo not given) |  | active: 3.55 µM
CCCCS(=O)CC(O)COc1ccc(C(C)(C)C)cc1 (stereo not given) |  | inconclusive: 100 µM [inhibitor, partial curve, poor fit]
O=C(CNC(=O)c1cccc(F)c1)OCCOc1cccc(Cl)c1 |  | inconclusive: 3.55 µM [inhibitor, partial curve, poor fit]
CSCCC(NC(=O)c1ccco1)C(=O)N1CC(C)OC(C)C1 (stereo not given) | inactive: 40.1% [at 12.7 µM] | 
Cc1cc2nc(NC3=NCN(Cc4ccc5c(c4)OCO5)CN3)nc(C)c2cc1C |  | inconclusive: 89.1 µM [inhibitor, single point]
Cc1cc(OCCOCCN(C)C)ccc1Cl |  | inconclusive: 22.4 µM [inhibitor, single point]
CC1(C)Oc2ccc(C(=O)N3CCCCC3)cc2N(CC(=O)NCc2ccccc2)C1=O |  | inconclusive: 0.316 µM [inhibitor, full curve, poor fit]
CCCCCCCC/C=C\CCCCCCCC(=O)NCc1ccc(O)c(OC)c1 |  | inactive
CCOC(=O)N1CCN(C(=O)c2ccc(CS(=O)(=O)c3ccccc3OC)o2)CC1 | inactive: 22% | 
Brc1ccc(-c2csc(Nc3nc(-c4ccc(Br)cc4)cs3)n2)cc1 | inactive: -45.6% [at 102 µM] | 
Nc1ccc2nc(-c3cc(Cl)c(N)c(Cl)c3)[nH]c2c1 |  | inconclusive: 14.1 µM [inhibitor, partial curve, poor fit]
COc1ccc(O)c(C(=O)/C=C/c2cc3ccccc3o2)c1 |  | inconclusive: 15.8 µM [inhibitor, partial curve, poor fit]
